Residue numbers refer to the chain shown, from its start. Results are given in words; binding and its absence hold for the method and conditions named. In cells and extracts the contact can be indirect. Some results given as binding are weak or reduced against the parent protein; the word gives no strength. Tags and fused reporters may be left off the sequences shown.
How the values were obtained:
Assay in all cases: co-IP; anti-FLAG (M2) on Dynabeads, S. pombe lysate, 1 x HC buffer with 250 mM KCl and 1 mM DTT, 4 h at 4°C; Swi6 detected by Western blotting
[1] = biological target: T1, 3FLAG-Epe1 (N-terminal tagged wild-type Epe1) (S. pombe) (UniProt O94603)
T1 sequence: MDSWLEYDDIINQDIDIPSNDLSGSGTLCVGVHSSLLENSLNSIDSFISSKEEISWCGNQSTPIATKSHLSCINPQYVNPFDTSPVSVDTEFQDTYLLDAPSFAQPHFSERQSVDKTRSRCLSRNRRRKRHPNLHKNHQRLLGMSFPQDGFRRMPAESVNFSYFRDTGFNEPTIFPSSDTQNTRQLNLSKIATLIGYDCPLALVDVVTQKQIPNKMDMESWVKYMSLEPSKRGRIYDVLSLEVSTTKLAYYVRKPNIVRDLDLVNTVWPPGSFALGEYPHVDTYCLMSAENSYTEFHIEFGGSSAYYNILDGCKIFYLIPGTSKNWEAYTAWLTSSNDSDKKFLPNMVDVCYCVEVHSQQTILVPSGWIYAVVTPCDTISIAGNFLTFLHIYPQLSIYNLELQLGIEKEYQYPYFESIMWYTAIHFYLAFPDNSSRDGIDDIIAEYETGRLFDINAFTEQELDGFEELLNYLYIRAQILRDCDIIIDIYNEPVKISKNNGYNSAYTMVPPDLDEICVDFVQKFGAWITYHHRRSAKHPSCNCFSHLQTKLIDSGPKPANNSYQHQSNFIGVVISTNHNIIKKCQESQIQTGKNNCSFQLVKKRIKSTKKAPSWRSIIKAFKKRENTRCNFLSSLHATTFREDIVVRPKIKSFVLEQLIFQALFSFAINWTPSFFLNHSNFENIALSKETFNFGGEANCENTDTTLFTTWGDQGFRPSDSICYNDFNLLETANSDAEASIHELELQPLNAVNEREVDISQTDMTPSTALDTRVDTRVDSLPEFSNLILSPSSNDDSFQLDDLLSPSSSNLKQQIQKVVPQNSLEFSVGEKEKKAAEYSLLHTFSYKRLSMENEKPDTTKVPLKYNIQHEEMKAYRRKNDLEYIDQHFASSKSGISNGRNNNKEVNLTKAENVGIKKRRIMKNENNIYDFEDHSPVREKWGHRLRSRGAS

[2] = biological target: T2, 3FLAG-Epe1ΔN (S. pombe) (UniProt O94603)
T2 sequence: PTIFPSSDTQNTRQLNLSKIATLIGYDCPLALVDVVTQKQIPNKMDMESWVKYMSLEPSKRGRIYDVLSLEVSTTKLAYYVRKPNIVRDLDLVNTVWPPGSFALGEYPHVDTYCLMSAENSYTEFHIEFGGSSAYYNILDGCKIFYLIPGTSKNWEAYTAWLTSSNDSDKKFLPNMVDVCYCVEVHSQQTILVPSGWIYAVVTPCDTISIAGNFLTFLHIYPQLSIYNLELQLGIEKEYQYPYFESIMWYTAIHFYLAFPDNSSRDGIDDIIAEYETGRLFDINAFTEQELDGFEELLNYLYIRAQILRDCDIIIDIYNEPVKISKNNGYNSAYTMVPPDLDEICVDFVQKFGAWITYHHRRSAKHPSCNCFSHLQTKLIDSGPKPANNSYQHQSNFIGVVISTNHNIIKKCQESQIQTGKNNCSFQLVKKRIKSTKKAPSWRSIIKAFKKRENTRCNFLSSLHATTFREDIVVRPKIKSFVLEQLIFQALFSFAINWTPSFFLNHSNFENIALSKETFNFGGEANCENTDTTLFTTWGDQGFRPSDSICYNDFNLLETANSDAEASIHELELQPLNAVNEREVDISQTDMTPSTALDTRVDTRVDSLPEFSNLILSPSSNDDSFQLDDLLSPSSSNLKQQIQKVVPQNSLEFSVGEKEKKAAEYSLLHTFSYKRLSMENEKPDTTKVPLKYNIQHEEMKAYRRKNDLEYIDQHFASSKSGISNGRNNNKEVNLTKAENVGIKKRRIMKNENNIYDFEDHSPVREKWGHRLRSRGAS

[3] = biological target: T3, 3FLAG-Epe1H297A (S. pombe), O94603; settings: remark: other sources report otherwise
T3 chain: T1 sequence with H297A

B1: Swi6 (protein, UniProt P40381 1-328)
chain: MKKGGVRSYRRSSTSKRSVIDDDSEPELPSMTKEAIASHKADSGSSDNEVESDHESKSSSKKLKENAKEEEGGEEEEEDEYVVEKVLKHRMARKGGGYEYLLKWEGYDDPSDNTWSSEADCSGCKQLIEAYWNEHGGRPEPSKRKRTARPKKPEAKEPSPKSRKTDEDKHDKDSNEKIEDVNEKTIKFADKSQEEFNENGPPSGQPNGHIESDNESKSPSQKESNESEDIQIAETPSNVTPKKKPSPEVPKLPDNRELTVKQVENYDSWEDLVSSIDTIERKDDGTLEIYLTWKNGAISHHPSTITNKKCPQKMLQFYESHLTFRENE
- binding [1]: binds
- binding [2]: binds

B2: Swi6, P40381 1-328 (protein)
chain: B1 chain
- binding [3]: binds

— PMC6576747
